Assay results: the BET-seq Pho4 binding data (Le et al. 2018)
The other results are listed elsewhere or left out. Values were computed here from the reads of four pooled replicates and scatter widely.

Each sequence was assayed against T1, Pho4 (S. cerevisiae) (UniProt P07270) (assay: relative binding free energy (BET-seq); higher = weaker binding). Details: reference: library average.
T1 sequence: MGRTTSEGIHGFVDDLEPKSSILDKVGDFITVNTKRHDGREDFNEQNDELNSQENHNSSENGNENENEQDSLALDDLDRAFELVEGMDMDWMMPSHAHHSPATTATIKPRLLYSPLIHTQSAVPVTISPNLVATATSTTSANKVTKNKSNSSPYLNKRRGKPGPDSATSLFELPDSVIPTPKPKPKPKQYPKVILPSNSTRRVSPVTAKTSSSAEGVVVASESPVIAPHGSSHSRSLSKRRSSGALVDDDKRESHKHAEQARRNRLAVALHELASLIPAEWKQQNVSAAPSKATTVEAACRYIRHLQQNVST

| Sequence | relative binding free energy [kcal/mol] |
| --- | --- |
| TTTTTCACGTGCTTAA | 0.24 |
| TATGTCACGTGTGTCA | -0.03 |
| GATGACACGTGGTTTG | 0.01 |
| GGATGCACGTGCTAGG | -0.1 |
| TGTGGCACGTGCTCTT | -0.19 |
| GGACTCACGTGGTGAG | 0.21 |
| TTGGGCACGTGCGGTG | -0.06 |
| AGAAGCACGTGAGGGG | 0.3 |
| TCTCTCACGTGGGAGG | 0.28 |
| TGCAGCACGTGCTGGG | 0 |
| GGAGACACGTGGCCGG | 0.07 |
| GTTAGCACGTGAAGAT | 0.14 |
| TGAGGCACGTGGTCTT | -0.16 |
| CGTGGCACGTGGACGT | -0.1 |
| TATTTCACGTGAAGTG | 0.45 |
| AGGTTCACGTGGGGGT | 0.17 |
| TTCTTCACGTGGCTTG | 0.21 |
| CGATTCACGTGTTTTA | 0.36 |
| TCTGTCACGTGAATTG | 0.42 |
| TTGCTCACGTGATGGA | 0.24 |
| GCGGGCACGTGTAGGC | -0.13 |
| GCATTCACGTGTTGTG | 0.18 |
| ACGGGCACGTGGTTCG | -0.17 |

| Sequence | relative binding free energy [kcal/mol] |
| --- | --- |
| GTTAACACGTGAGTTG | 0.23 |
| AGTGACACGTGGAGCT | 0.08 |
| TCTGGCACGTGAGTTA | 0.07 |
| TAACGCACGTGTAGTG | -0.06 |
| TTAATCACGTGGGTAG | -0.02 |
| CGGTGCACGTGTAAAT | 0.15 |
| GGTGTCACGTGAGGAT | 0.24 |
| AGTTCCACGTGTGTAT | 0.12 |
| AGATTCACGTGGGGCG | 0.34 |
| TTTAGCACGTGATGTG | 0.14 |
| AAGCACACGTGTAGGG | 0.15 |
| AAAGACACGTGTTAGT | 0.03 |
| AGGTGCACGTGAGCTG | 0.2 |
| AGGTTCACGTGTGCGG | 0.26 |
| GTTGTCACGTGTTATG | 0.16 |
| GTAGTCACGTGGTGCC | 0.1 |
| CTGTTCACGTGAGCGT | 0.3 |
| TCGCTCACGTGTTGTT | 0.2 |
| GAAGTCACGTGCTGTT | 0.27 |
| TGAGTCACGTGTGCTA | 0.15 |
| AGTTTCACGTGAAATA | 0.31 |
| TAATACACGTGGGGAT | -0.1 |
| ATTCTCACGTGTGCTG | 0.26 |

| Sequence | relative binding free energy [kcal/mol] |
| --- | --- |
| TACTGCACGTGAAGTG | 0.14 |
| CTGTGCACGTGTCGTT | -0.04 |
| GGTAGCACGTGTAAGC | 0.15 |
| ATGTCCACGTGATTGT | 0.13 |
| GGTAGCACGTGAATGG | 0.24 |
| CATTGCACGTGCGAGG | -0.01 |
| GTCAGCACGTGGGGGC | -0.24 |
| GCGTACACGTGAGGGC | 0.41 |
| TGTAGCACGTGTTAAT | 0.04 |
| GTTCGCACGTGGAGGC | 0.02 |
| TGAGTCACGTGTTAAA | 0.13 |
| GTTTCCACGTGTGGCA | 0.43 |
| GTGGTCACGTGCCTGT | 0.07 |
| TGCGTCACGTGGTCTG | -0.02 |
| TAGGTCACGTGGTACA | 0 |
| CATGTCACGTGCTGTG | 0.02 |
| GTCTTCACGTGGCTGG | 0.29 |
| TTTTACACGTGGTCAT | -0.04 |
| TAGTGCACGTGAGTTG | 0.3 |
| TATGACACGTGGGGCT | -0.19 |
| TTGTGCACGTGTCTTA | 0.09 |
| TGATTCACGTGCAAGT | 0.2 |
| ATAGACACGTGGATTT | 0.14 |

| Sequence | relative binding free energy [kcal/mol] |
| --- | --- |
| AGATTCACGTGGAGTC | 0.35 |
| TCTTACACGTGGGAAG | 0.32 |
| ACTGTCACGTGTGGGT | 0.11 |
| GAAGTCACGTGGTTGT | 0.09 |
| TGGTCCACGTGGAGCG | 0.21 |
| GGGGTCACGTGTCGTA | 0.23 |
| AGTTCCACGTGGGGTG | -0.16 |
| TTTTACACGTGACGTG | 0.2 |
| GGGCTCACGTGCGTGA | 0.21 |
| TAGACCACGTGGAGTT | 0.21 |
| GGTAGCACGTGTTTGA | -0.13 |
| GACGTCACGTGAAGGG | 0.44 |
| TGCTTCACGTGTAGTA | 0.09 |
| TCATTCACGTGGTGAT | 0.22 |
| ATTTTCACGTGTAACT | 0.2 |
| GATTTCACGTGGTTCT | 0.2 |
| TGATACACGTGGTTTT | 0.11 |
| AGAATCACGTGGTGGC | 0.16 |
| TTAAGCACGTGGGAAG | -0.26 |
| ATTATCACGTGTTGCA | 0.01 |
| TGACACACGTGGGGTA | -0.22 |
| TTGCTCACGTGGCTGT | 0.08 |
| TGATTCACGTGTCGAT | 0.27 |

| Sequence | relative binding free energy [kcal/mol] |
| --- | --- |
| ATGGTCACGTGTTATT | 0.14 |
| TGGCTCACGTGTCTTT | 0.22 |
| GGTGGCACGTGTACTG | -0.05 |
| GGGAGCACGTGGCGTG | -0.12 |
| ATTGACACGTGAGGTG | 0.12 |
| GGGGCCACGTGGTGTT | -0.19 |
| GATTACACGTGTTGAA | 0.24 |
| ACGCTCACGTGTGGTT | 0.32 |
| GGAGACACGTGTTGGC | 0.05 |
| GTGTACACGTGGTGTG | 0 |
| AAGTTCACGTGTAAAG | 0.28 |
| TCATGCACGTGTATTG | -0.18 |
| CGTGCCACGTGGATGG | -0.17 |
| AAAAGCACGTGGGTAG | -0.23 |
| ATGTTCACGTGTTTGT | 0.25 |
| TAAACCACGTGGAGGG | 0.03 |
| CGGGTCACGTGGGGGT | -0.07 |
| GCTTCCACGTGGGGGT | -0.1 |
| GGGATCACGTGGGGCT | 0.14 |
| AGGATCACGTGTAAGT | 0.1 |
| TTATGCACGTGATGGG | 0.12 |
| GTGGACACGTGGGGTC | -0.15 |
| TGGTACACGTGGGTAT | -0.07 |
